Measurements published in the supplement of paper PMC8728848.
This is one part of the list.

How the values were obtained:
Experiment in all cases: glycan array binding signal (z-score within array); higher = stronger binding
Details in all cases: glycan notation: IUPAC condensed, linker removed
[1] = target: Neu5Ac(a2-3)Gal(b1-4)GlcNAc(b1-2)[Neu5Ac(a2-3)Gal(b1-4)GlcNAc(b1-4)]Man(a1-3)[GlcNAc(b1-4)][Neu5Ac(a2-3)Gal(b1-4)GlcNAc(b1-4)Man(a1-6)]Man(b1-4)GlcNAc(b1-4)GlcNAc
Summary of the method: (§1)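 Negative Z-scores can be read as non-binding. The Z-score is calculated within each array and then averaged across arrays of one protein sequence at different concentrations or buffers and across linkers. Arrays, 3228 in all, were curated from the Consortium for Functional Glycomics database and kept only where the protein sequence was available.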

[2] = target: Neu5Ac(a2-3)Gal(b1-4)GlcNAc(b1-2)[Neu5Ac(a2-3)Gal(b1-4)GlcNAc(b1-6)]Man(a1-6)[Neu5Ac(a2-3)Gal(b1-4)GlcNAc(b1-2)Man(a1-3)]Man(b1-4)GlcNAc(b1-4)GlcNAc
Summary of the method: as §1

[3] = target: Neu5Ac(a2-3)Gal(b1-4)GlcNAc(b1-2)[Neu5Ac(a2-3)Gal(b1-4)GlcNAc(b1-6)]Man(a1-6)[Neu5Ac(a2-3)Gal(b1-4)GlcNAc(b1-2)Man(a1-3)][GlcNAc(b1-4)]Man(b1-4)GlcNAc(b1-4)GlcNAc
Summary of the method: as §1

[4] = target: Neu5Ac(a2-3)Gal(b1-4)GlcNAc(b1-3)Gal
Summary of the method: as §1

[5] = target: Neu5Ac(a2-3)Gal(b1-4)GlcNAc(b1-3)Gal(b1-3)GlcNAc
Summary of the method: as §1

[6] = target: Neu5Ac(a2-3)Gal(b1-4)GlcNAc(b1-3)Gal(b1-4)GlcNAc
Summary of the method: as §1

[7] = target: Neu5Ac(a2-3)Gal(b1-4)GlcNAc(b1-3)Gal(b1-4)GlcNAc(b1-2)Man(a1-3)[Neu5Ac(a2-3)Gal(b1-4)GlcNAc(b1-3)Gal(b1-4)GlcNAc(b1-2)Man(a1-6)]Man(b1-4)GlcNAc(b1-4)GlcNAc
Summary of the method: as §1

[8] = target: Neu5Ac(a2-3)Gal(b1-4)GlcNAc(b1-3)Gal(b1-4)GlcNAc(b1-3)Gal(b1-4)GlcNAc
Summary of the method: as §1

[9] = target: Neu5Ac(a2-3)Gal(b1-4)GlcNAc(b1-3)Gal(b1-4)GlcNAc(b1-3)Gal(b1-4)GlcNAc(b1-2)Man(a1-3)[Neu5Ac(a2-3)Gal(b1-4)GlcNAc(b1-3)Gal(b1-4)GlcNAc(b1-3)Gal(b1-4)GlcNAc(b1-2)Man(a1-6)]GalNAc
Summary of the method: as §1

[10] = target: Neu5Ac(a2-3)Gal(b1-4)GlcNAc(b1-3)Gal(b1-4)GlcNAc(b1-3)GalNAc
Summary of the method: as §1

[11] = target: Neu5Ac(a2-3)Gal(b1-4)GlcNAc(b1-3)Gal(b1-4)GlcNAc(b1-3)[Neu5Ac(a2-3)Gal(b1-4)GlcNAc(b1-3)Gal(b1-4)GlcNAc(b1-6)]GalNAc
Summary of the method: as §1

[12] = target: Neu5Ac(a2-3)Gal(b1-4)GlcNAc(b1-3)Gal(b1-4)GlcNAc(b1-6)[Gal(b1-3)]GalNAc
Summary of the method: as §1

[13] = target: Neu5Ac(a2-3)Gal(b1-4)GlcNAc(b1-3)Gal(b1-4)[Fuc(a1-3)]GlcNAc
Summary of the method: as §1

[14] = target: Neu5Ac(a2-3)Gal(b1-4)GlcNAc(b1-3)GalNAc
Summary of the method: as §1

[15] = target: Neu5Ac(a2-3)Gal(b1-4)GlcNAc(b1-3)[Neu5Ac(a2-3)Gal(b1-4)GlcNAc(b1-6)]GalNAc
Summary of the method: as §1

[16] = target: Neu5Ac(a2-3)Gal(b1-4)GlcNAc(b1-6)GalNAc
Summary of the method: as §1

[17] = target: Neu5Ac(a2-3)Gal(b1-4)GlcNAc(b1-6)[Gal(b1-3)]GalNAc
Summary of the method: as §1

[18] = target: Neu5Ac(a2-3)Gal(b1-4)GlcNAc(b1-6)[Neu5Ac(a2-3)Gal(b1-3)]GalNAc
Summary of the method: as §1

[19] = target: Neu5Ac(a2-3)Gal(b1-4)GlcNAc6S
Summary of the method: as §1

[20] = target: Neu5Ac(a2-3)Gal(b1-4)[Fuc(a1-3)]GlcNAc
Summary of the method: as §1

[21] = target: Neu5Ac(a2-3)Gal(b1-4)[Fuc(a1-3)]GlcNAc(b1-2)Man
Summary of the method: as §1

[22] = target: Neu5Ac(a2-3)Gal(b1-4)[Fuc(a1-3)]GlcNAc(b1-3)Gal
Summary of the method: as §1

[23] = target: Neu5Ac(a2-3)Gal(b1-4)[Fuc(a1-3)]GlcNAc(b1-3)Gal(b1-4)GlcNAc
Summary of the method: as §1

[24] = target: Neu5Ac(a2-3)Gal(b1-4)[Fuc(a1-3)]GlcNAc(b1-3)Gal(b1-4)[Fuc(a1-3)]GlcNAc(b1-3)Gal(b1-4)[Fuc(a1-3)]GlcNAc
Summary of the method: as §1

[25] = target: Neu5Ac(a2-3)Gal(b1-4)[Fuc(a1-3)]GlcNAc(b1-3)GalNAc
Summary of the method: as §1

[26] = target: Neu5Ac(a2-3)Gal(b1-4)[Fuc(a1-3)]GlcNAc(b1-6)[Gal(b1-3)]GalNAc
Summary of the method: as §1

[27] = target: Neu5Ac(a2-3)Gal(b1-4)[Fuc(a1-3)]GlcNAc(b1-6)[Neu5Ac(a2-3)Gal(b1-3)]GalNAc
Summary of the method: as §1

[28] = target: Neu5Ac(a2-3)Gal(b1-4)[Fuc(a1-3)]GlcNAc6S
Summary of the method: as §1

[29] = target: Neu5Ac(a2-3)Gal6S(b1-4)GlcNAc
Summary of the method: as §1

[30] = target: Neu5Ac(a2-3)Gal6S(b1-4)[Fuc(a1-3)]GlcNAc
Summary of the method: as §1

Neu5Ac(a2-3)GalNAc = target: Neu5Ac(a2-3)GalNAc
Summary of the method: as §1

[31] = target: Neu5Ac(a2-3)GalNAc(b1-4)GlcNAc
Summary of the method: as §1

[32] = target: Neu5Ac(a2-3)[GalNAc(b1-4)]Gal(b1-4)Glc
Summary of the method: as §1

[33] = target: Neu5Ac(a2-3)[GalNAc(b1-4)]Gal(b1-4)GlcNAc
Summary of the method: as §1

[34] = target: Neu5Ac(a2-3)[GalNAc(b1-4)]Gal(b1-4)GlcNAc(b1-3)GalNAc
Summary of the method: as §1

[35] = target: Neu5Ac(a2-3)[Neu5Ac(a2-6)]GalNAc
Summary of the method: as §1

Neu5Ac(a2-6)Gal = target: Neu5Ac(a2-6)Gal
Summary of the method: as §1

B1: GS13846A-bth-444-19-444 (Bacteroides thetaiotaomicron) (protein)
chain: SCENEFDVSDKADSLISVTVNTLNNQAAYNVGETAQAELWIQRGGLKDASGKVQFVVDPLLLDSLNQEDKTNYELLPENCYEMTNTEFTVDKNELCGYITYHPEKILALSAYNETKYVLPLRLISNDLAINPARNTSFLAFTILEPIVHISNAGVYNINPDLTSTMDIQIGVPFTNKWDILCNLTEDLSLIDEYNQINKVNFTLLPENAYTAPESVTLQEGVSQITASYQLKNNLVPGNYILPIKIGSITASQGGVPNNSLVIDEESNVLFCIVKEGNKINKSGWEVIECSSEHAGNEATYMIDDNESTYWHCKFKNEAGSSVPPFHFIIDMKKEITIAQIDLLNRGDGAANNIKWVEFYASNNNSEWDKIGAGDFNDEGTRATFRYYVKSTKARYLKLIIPEGYGNNCPPAAIRELTVYGLEGNN
glycan array binding signal (z-score) [1]: -0.332
glycan array binding signal (z-score) [2]: -0.343
glycan array binding signal (z-score) [3]: -0.314
glycan array binding signal (z-score) [4]: -0.115
glycan array binding signal (z-score) [5]: -0.365
glycan array binding signal (z-score) [6]: -0.273
glycan array binding signal (z-score) [7]: 0.171
glycan array binding signal (z-score) [8]: 0.067
glycan array binding signal (z-score) [9]: -0.089
glycan array binding signal (z-score) [10]: -0.353
glycan array binding signal (z-score) [11]: -0.336
glycan array binding signal (z-score) [12]: 0.701
glycan array binding signal (z-score) [13]: -0.159
glycan array binding signal (z-score) [14]: -0.358
glycan array binding signal (z-score) [15]: -0.202
glycan array binding signal (z-score) [16]: 0.068
glycan array binding signal (z-score) [17]: -0.363
glycan array binding signal (z-score) [18]: -0.359
glycan array binding signal (z-score) [19]: -0.323
glycan array binding signal (z-score) [20]: -0.179
glycan array binding signal (z-score) [21]: -0.335
glycan array binding signal (z-score) [22]: -0.359
glycan array binding signal (z-score) [23]: -0.205
glycan array binding signal (z-score) [24]: -0.316
glycan array binding signal (z-score) [25]: 0.234
glycan array binding signal (z-score) [26]: 1.34
glycan array binding signal (z-score) [27]: 0.385
glycan array binding signal (z-score) [28]: -0.062
glycan array binding signal (z-score) [29]: -0.129
glycan array binding signal (z-score) [30]: -0.421
glycan array binding signal (z-score) (Neu5Ac(a2-3)GalNAc): -0.224
glycan array binding signal (z-score) [31]: -0.194
glycan array binding signal (z-score) [32]: -0.277
glycan array binding signal (z-score) [33]: -0.26
glycan array binding signal (z-score) [34]: -0.073
glycan array binding signal (z-score) [35]: -0.182
glycan array binding signal (z-score) (Neu5Ac(a2-6)Gal): -0.29
